The list shows a part of the results.

The values that follow come from a collection of fitness landscapes (doi:10.1126/science.1257360).

B1: PhoQ; a variant is named by its letters at X, in order, P23837 (parent)
chain: MKKLLRLFFPLSLRVRFLLATAAVVLVLSLAYGMVALIGYSVSFDKTTFRLLRGESNLFYTLAKWENNKLHVELPENIDKQSPTMTLIYDENGQLLWAQRDVPWLMKMIQPDWLKSNGFHEIEADVNDTSLLLSGDHSIQQQLQEVREDDDDAEMTHSVAVNVYPATSRMPKLTIVVVDTIPVELKSSYMVWSWFIYVLSANLLLVIPLLWVAAWWSLRPIEALAKEVRELEEHNRELLNPATTRELTSLVRNLNRLLKSERERYDKYRTTLTDLTHSLKTPLXXLQXXLRSLRSEKMSVSDAEPVMLEQISRISQQIGYYLHRASMRGGTLLSRELHPVAPLLDNLTSALNKVYQRKGVNISLDISPEISFVGEQNDFVEVMGNVLDNACKYCLEFVEISARQTDEHLYIVVEDDGPGIPLSKREVIFDRGQRVDTLRPGQGVGLAVAREITEQYEGKIVAGESMLGGARMEVIFGRQHSAPKDE

Variants of B1 are the subject of the test. As to the kind of experiment: enrichment ratio after two sorts for PhoP signalling (ratio (wild type AVST 3.29)); higher = more functional. The following applies: with PhoP (E. coli).
As for VSAV, the enrichment ratio is 7.42.
For GQHF, the enrichment ratio was at most 0.25.
The same measure for KEDV: at most 0.25.
The same measure for RADI: at most 0.25.
The same measure for RFCY: at most 0.25; for LTFL: at most 0.25; for GRRN: at most 0.25.
As for FLCT, the enrichment ratio was at most 0.25.
The same measure for DSPW: at most 0.25; for FIGS: at most 0.25.
The figure for FCDG is at most 0.25; for NLDH it is at most 0.25.
The figure for SDAF is at most 0.25; for SCTT it is 11.4; for EKTW it is at most 0.25.
For the variant YWLM, the enrichment ratio was at most 0.25.
The same measure for SGHI: at most 0.25.
The same measure for RHVS: at most 0.25; for NNCY: at most 0.25.
Turning to SISV, the enrichment ratio was determined as 11.6.
The same measure for VDNP: at most 0.25.
The figure for SHDQ is at most 0.25; for TWNK it is at most 0.25; for PEDP it is at most 0.25.
With LMVM, the enrichment ratio was at most 0.25.
On to RNGY, for which the enrichment ratio is at most 0.25.
In the case of YYNM, the enrichment ratio was at most 0.25.
The figure for KSPA is at most 0.25; for MPRQ it is at most 0.25; for RIKS it is at most 0.25.
The same measure for PKML: at most 0.25; for SYFI: at most 0.25; for MNDT: at most 0.25.
The figure for QHTW is at most 0.25; for IWRA it is at most 0.25.
As to MDNR, the enrichment ratio was at most 0.25.
For the variant LYSA, the enrichment ratio is at most 0.25.
The figure for AFAM is at most 0.25; for DFIN it is at most 0.25; for ADNP it is at most 0.25.
The same measure for QLDN: at most 0.25.
The same measure for PPVE: at most 0.25.
On to TRQP, for which the enrichment ratio turned out to be 0.618.
Consider KYIL, for which the enrichment ratio is at most 0.25.
As for PNKT, the enrichment ratio was at most 0.25.
The same measure for YWNR: at most 0.25; for YHMY: at most 0.25.
The figure for VLTC is 1.4.
The figure for LWNH is at most 0.25; for GQCE it is 21.9; for SWQA it is at most 0.25.
Consider HFGD, for which the enrichment ratio is at most 0.25.
The same measure for FDTD: at most 0.25; for EDCV: at most 0.25; for MKVT: at most 0.25.
Take GDGP: the enrichment ratio was at most 0.25.
The figure for ADQW is at most 0.25; for KMPD it is at most 0.25.
The figure for TREV is at most 0.25; for VWIW it is at most 0.25; for VGQD it is at most 0.25.
The figure for NGNF is at most 0.25.
Regarding INNM, the enrichment ratio is at most 0.25.
YFEH: the enrichment ratio is at most 0.25.
The same measure for IAFQ: at most 0.25; for FQDI: at most 0.25.
For the variant SNMK, the enrichment ratio is at most 0.25.
The figure for RAVM is at most 0.25; for KINW it is at most 0.25.
For FYTK, the enrichment ratio is at most 0.25.
Consider IEWY, for which the enrichment ratio is at most 0.25.
With PQNP, the enrichment ratio was at most 0.25.
Regarding WPMI, the enrichment ratio was at most 0.25.
The figure for YCTF is 0.969.
Consider QNGH, for which the enrichment ratio is at most 0.25.
Regarding DDTD, the enrichment ratio was at most 0.25.
As to PHNH, the enrichment ratio was at most 0.25.
The figure for ETQT is at most 0.25.
The figure for ELLD is at most 0.25.
With QIVC, the enrichment ratio is at most 0.25.
The same measure for IYHA: at most 0.25.
HQLP: the enrichment ratio was at most 0.25.
The same measure for DVSC: at most 0.25; for TVLK: at most 0.25; for YMAK: at most 0.25.
Regarding DTFC, the enrichment ratio is at most 0.25.
The figure for AIGY is 1.1; for SGPK it is at most 0.25.
Turning to QSVY, the enrichment ratio is at most 0.25.
MTPF: the enrichment ratio is at most 0.25.
The same measure for NSTQ: at most 0.25; for EYHY: at most 0.25; for VATA: at most 0.25.
The same measure for GDNE: at most 0.25; for RAWI: at most 0.25.
On to HPAH, for which the enrichment ratio was at most 0.25.
The figure for QNIF is at most 0.25; for CFHV it is at most 0.25.
The figure for EIPP is at most 0.25.
The same measure for RQMC: at most 0.25; for IYGC: at most 0.25; for HKTW: at most 0.25.
With TPRI, the enrichment ratio was at most 0.25.
The figure for HFGK is at most 0.25.
The figure for QKFK is at most 0.25; for GKHS it is at most 0.25; for DFWT it is at most 0.25.
The same measure for TSEW: at most 0.25; for GQVH: at most 0.25; for RCGR: at most 0.25.
Turning to MTCS, the enrichment ratio was at most 0.25.
With LNLL, the enrichment ratio was at most 0.25.
The figure for TQHC is 0.717.
The figure for MTEQ is at most 0.25; for DFYY it is at most 0.25.
Consider FVLV, for which the enrichment ratio is 1.48.
The same measure for CHIC: at most 0.25; for MAWY: 2.07.
The same measure for LIIT: at most 0.25.
The figure for GGGN is at most 0.25.
For the variant LLKN, the enrichment ratio was at most 0.25.
The same measure for TLHS: at most 0.25; for ILSV: at most 0.25.
The figure for LFMW is at most 0.25; for THHT it is at most 0.25.
The figure for IARR is at most 0.25; for FRED it is at most 0.25; for DEHL it is 0.792.
NQSY: the enrichment ratio is at most 0.25.
The same measure for EVDT: at most 0.25; for TRLG: 2.12.
The same measure for HCVS: at most 0.25; for GVSR: at most 0.25.
The same measure for WEDA: at most 0.25; for SDRA: at most 0.25.
With KLML, the enrichment ratio is at most 0.25.
The figure for KTHP is at most 0.25; for NIQV it is at most 0.25; for RTGG it is at most 0.25.
For the variant NQTL, the enrichment ratio is at most 0.25.
The same measure for WDFR: at most 0.25; for TAGP: at most 0.25; for TTRN: at most 0.25.
The figure for NARE is at most 0.25; for ENTH it is at most 0.25; for GNSV it is 8.29.
The figure for DMDD is at most 0.25; for AVAP it is at most 0.25; for AWIR it is at most 0.25.
As to FPNE, the enrichment ratio was at most 0.25.
The figure for GTPE is at most 0.25.
The figure for YLAN is at most 0.25; for HFMK it is at most 0.25; for WCYH it is at most 0.25.
The figure for VTCE is at most 0.25; for STLR it is 4.1.
With EKTF, the enrichment ratio was at most 0.25.
With ESNC, the enrichment ratio is at most 0.25.
RDTQ: the enrichment ratio is at most 0.25.
For RYSN, the enrichment ratio is at most 0.25.
The same measure for SEKV: at most 0.25; for ELPY: at most 0.25.
Consider INQQ, for which the enrichment ratio is at most 0.25.
The same measure for HWML: at most 0.25.
The same measure for RISE: at most 0.25; for DWLL: at most 0.25; for IHLE: at most 0.25.
For RVKD, the enrichment ratio is at most 0.25.
REQS: the enrichment ratio is at most 0.25.
The figure for PSYS is at most 0.25; for DMFW it is at most 0.25; for QWMA it is at most 0.25.
The figure for KATK is at most 0.25; for YNKI it is at most 0.25; for LCFN it is at most 0.25.
Take GMVS: the enrichment ratio is at most 0.25.
The figure for QNKS is at most 0.25; for TDNV it is at most 0.25.
Take RLKW: the enrichment ratio is at most 0.25.
Consider KRYL, for which the enrichment ratio was at most 0.25.
The same measure for ACDP: at most 0.25.
Regarding YYDC, the enrichment ratio is at most 0.25.
The same measure for KYFF: at most 0.25; for EMGL: at most 0.25.
The same measure for DDWH: at most 0.25.
The figure for KRLA is at most 0.25; for QPKD it is at most 0.25; for GCGD it is at most 0.25.
PMQC: the enrichment ratio was at most 0.25.
The figure for HHNP is at most 0.25; for SKGI it is at most 0.25; for EMKF it is at most 0.25.
GMWG: the enrichment ratio was at most 0.25.
On to TSVC, for which the enrichment ratio stood at 7.92.
The figure for QQLN is at most 0.25.
